Some results were stated once for a whole list of compounds, not compound by compound. At least one compound was matched to its structure with a doubt left.
Tests used:
L1210 cells [1] = experiment: DNA synthesis (3H-thymidine incorporation) in L1210 cells; format: cell-based, murine; conditions: 7 μM, 2 h
Procedure: FIG. 9. […] Cells (1.14×10^6/0.5 ml of RPMI 1640 medium) were incubated at 37° C. for 90 min in the presence or absence (control) of the indicated concentrations of drugs, which are plotted on a logarithmic scale, and then pulse-labeled for an additional 30 min to determine the rate of ^3H-thymidine incorporation into DNA.
FIG. 11. […] The cellular uptake of ^3H-thymidine (striped) and the rate of ^3H-thymidine incorporation into DNA (open) were determined in cells (1.38×10^6/0.5 ml of RPMI 1640 medium) respectively preincubated at 37° C. for 15 or 90 min in the presence or absence (control) of 7 μM concentrations of the indicated compounds. For the cellular transport of nucleosides, preincubated cells were then exposed to 1 μCi of ^3H-thymidine for 30 sec at 37° C. […] For DNA synthesis, preincubated cells were then pulse-labeled with 1 μCi of ^3H-thymidine for an additional 30 min at 37° C.
FIG. 12. […] The cellular uptake of ^3H-thymidine (striped) and the rate of ^3H-thymidine incorporation into DNA (open) were determined in cells (1.64×10^6/0.5 ml of RPMI 1640 medium) respectively preincubated at 37° C. for 15 or 60 min in the presence or absence (control) of 10 and 25 μM TT2 or 25 μM H10. […] After preincubation, vehicle-treated controls were similarly spun and washed. For the cellular transport of nucleosides, preincubated cells were then exposed, in the presence (+) or absence (−) of TT2 or H10, to 1 μCi of ^3H-thymidine for 30 sec at 37° C. […] For DNA synthesis, preincubated cells were then pulse-labeled with 1 μCi of ^3H-thymidine for an additional 30 min at 37° C. in the presence (+) or absence (−) of TT2 or H10. […] Bars: means±SD (n=3).
For nucleic acid and protein syntheses, L1210 cells were resuspended in fresh FCS-containing RPMI 1640 medium at a density of about 1.1-1.6×10^6 cells/0.5 ml. To estimate the rate of DNA synthesis, HL-60-S, HL-60-RV and HL-60-R8 cells were resuspended in fresh FCS-containing RPMI 1640 medium at a density of 5×10^5 cells/0.5 ml.

L1210 cells [2] = experiment: Nucleoside transport (30-sec cellular uptake) in L1210 cells; format: cell-based, murine; conditions: 7 μM, 15 min
Procedure: FIG. 10. Concentration-dependent inhibition of nucleoside transport by the TT analog TT2 in L1210 cells in vitro. […] After washing thrice with PBS, intact cell pellets were harvested by centrifugation, incubated for 30 min in 1 ml of HLB containing 0.2% Triton X-100, and these lysates were mixed with scintillation cocktail and counted to estimate the cellular uptake of ^3H-thymidine. Results are expressed as % of ^3H-thymidine transported into vehicle-treated control cells over 30 sec (15,031±872 cpm; 100±6%; striped area).
FIG. 11. Comparison of the inhibitory effects of novel TT analogs on DNA synthesis (open) and nucleoside transport (striped) in L1210 cells in vitro. The cellular uptake of ^3H-thymidine (striped) and the rate of ^3H-thymidine incorporation into DNA (open) were determined in cells (1.38×10^6/0.5 ml of RPMI 1640 medium) respectively preincubated at 37° C. for 15 or 90 min in the presence or absence (control) of 7 μM concentrations of the indicated compounds. For the cellular transport of nucleosides, preincubated cells were then exposed to 1 μCi of ^3H-thymidine for 30 sec at 37° C. Results are expressed as % of ^3H-thymidine transported into vehicle-treated control cells over 30 sec (15,539±1,767 cpm; 100±11%; striped control). For DNA synthesis, preincubated cells were then pulse-labeled with 1 μCi of ^3H-thymidine for an additional 30 min at 37° C. Results are expressed as % of ^3H-thymidine incorporation into DNA in vehicle-treated control cells over 30 min (28,505±2,594 cpm; 100±9%; open control). The blank value (1,075±171 cpm) for cells incubated and pulse-labeled at 2° C. with 1 μCi of ^3H-thymidine has been substracted from the results. Bars: means±SD (n=3). ^aNot different from TT3, TT7, TT9 and TT11; ^bP<0.01, smaller than TT1 but not different from TT13; ^cnot different from control; ^dP<0.025, greater than TT1; ^eP<0.05, smaller than control.
FIG. 12. Irreversibility of the inhibitory effects of the novel TT analog TT2 on DNA synthesis (open) and nucleoside transport (striped) in L1210 cells in vitro. […] The cellular uptake of ^3H-thymidine (striped) and the rate of ^3H-thymidine incorporation into DNA (open) were determined in cells (1.64×10^6/0.5 ml of RPMI 1640 medium) respectively preincubated at 37° C. for 15 or 60 min in the presence or absence (control) of 10 and 25 μM TT2 or 25 μM H10. The protocol of the experiments and the determination of the results were identical to those of FIGS. 9 and 10, except that, after preincubation, either the drugs were maintained in the culture medium (+) or the cells were spun, washed, and resuspended in fresh medium in order to remove the drugs (−). After preincubation, vehicle-treated controls were similarly spun and washed. For the cellular transport of nucleosides, preincubated cells were then exposed, in the presence (+) or absence (−) of TT2 or H10, to 1 μCi of ^3H-thymidine for 30 sec at 37° C. Results are expressed as % of ^3H-thymidine transported into vehicle-treated control cells over 30 sec (11,054±754 cpm; 100±7%; striped control+; 14,486±1,260 cpm; 100±9%; striped control−). For DNA synthesis, preincubated cells were then pulse-labeled with 1 μCi of ^3H-thymidine for an additional 30 min at 37° C. in the presence (+) or absence (−) of TT2 or H10. Results are expressed as % of ^3H-thymidine incorporation into DNA in vehicle-treated control cells over 30 min (34,052±1,566 cpm; 100±5%; open control+; 28,811±2,506 cpm; 100±9%; open control−). The blank value (1,328±86 cpm) for cells incubated and pulse-labeled at 2° C. with 1 μCi of ^3H-thymidine has been substracted from the results. Bars: means±SD (n=3).
L1210 cells (about 1.5×10^6 cells/0.5 ml) were preincubated for 15 min at 37° C. in the presence or absence of TTs and then exposed to 1 μCi of ^3H-thymidine for only 30 sec to assess the cellular uptake of nucleoside over such very short period of time. […]

Compound	% inhibition of DNA synthesis (3H-thymidine incorporation into DNA) (L1210 cells [1])	% inhibition of cellular transport of 3H-thymidine (L1210 cells [2])
O=C1C=CC(=O)C2=C1C1c3ccccc3C2c2ccccc21 [TT7, 9,10-Dihydro-9,10-[1′,2′]benzenoanthracene-1,4-dione]	41-58%	44-57%
COC1=CC(=O)C2=C(C1=O)C1c3ccccc3C2c2ccccc21 [TT9, 2-Methoxy-9,10-dihydro-9,10-[1′,2′]benzenoanthracene-1,4-dione]	41-58%	44-57%
O=C1C=CC(=O)[C@H]2C3c4ccccc4C(c4ccccc43)[C@@H]12 [TT6, (4aS*,9aR*)-4a,9,9a,10-Tetrahydro-9,10-[1′,2′]benzenoanthracene-1,4-dione]	20-35%	20-35%
COC1=CC(=O)C2C3c4ccccc4C(c4ccccc43)C2C1=O (stereo not drawn) [TT8, (4aS*,9aR*)-2-Methoxy-4a,9,9a,10-tetrahydro-9,10-[1′,2′]benzenoanthracene-1,4-dione]	20-35%	20-35%
COc1cc(O)c2c(c1O)C1c3ccccc3C2c2c(OC)ccc(OC)c21 (centres unmarked) [TT3, 1,4-Dihydroxy-2,5,8-trimethoxy-9,10-dihydro-9,10-[1′,2′]benzenoanthracene]	41-58%	44-57%
COC(=O)C1=CC(=O)[C@H]2C3c4ccccc4C(c4c(OC)ccc(OC)c43)[C@H]2C1=O (relative stereo) [TT10, (4aS*,9aR*)-5,8-Dimethoxy-2-methoxycarbonyl-4a,9,9a,10-tetrahydro-9,10-[1′,2′]benzenoanthracene-1,4-dione]	20-35%	20-35%
COC1=CC(=O)C2=C(C1=O)C1c3ccccc3C2c2c(OC)ccc(OC)c21 (centres unmarked) [TT5, 2,5,8-Trimethoxy-9,10-dihydro-9,10-[1′,2′]benzenoanthracene-1,4-dione]	20-35%	20-35%
COC1=C(Br)C(=O)C2=C(C1=O)C1C3=C(C(=O)C=CC3=O)C2c2ccccc21 (centres unmarked) [TT13, 2-Bromo-3-methoxy-9,10-dihydro-9,10-[1′,2′]benzenoanthracene-1,4,5,8-tetraone]	69-71%	72-75%
9,10-Dihydro-9,10-[1′,2′]benzenoanthracene-1,4,5,8-tetraone [TT1]	41-58%	44-57%
COC1=CC(=O)C2=C(C1=O)C1C3=C(C(=O)C=CC3=O)C2c2ccccc21 (centres unmarked) [TT2, 2-Methoxy-9,10-dihydro-9,10-[1′,2′]benzenoanthracene-1,4,5,8-tetraone]	69-71%	72-75%
